For 72 sequences, binding signal (log2 normalized intensity) results are on record in paper PMC10726135.

The list shows a part of the results. At the low end of the ranking, values are background and their order means little. Measured with an extract: partners may take part in the binding.

The assay deals with T1, HNF4alpha8 (COS-7 nuclear extract) (UniProt P41235-5).
T1 sequence: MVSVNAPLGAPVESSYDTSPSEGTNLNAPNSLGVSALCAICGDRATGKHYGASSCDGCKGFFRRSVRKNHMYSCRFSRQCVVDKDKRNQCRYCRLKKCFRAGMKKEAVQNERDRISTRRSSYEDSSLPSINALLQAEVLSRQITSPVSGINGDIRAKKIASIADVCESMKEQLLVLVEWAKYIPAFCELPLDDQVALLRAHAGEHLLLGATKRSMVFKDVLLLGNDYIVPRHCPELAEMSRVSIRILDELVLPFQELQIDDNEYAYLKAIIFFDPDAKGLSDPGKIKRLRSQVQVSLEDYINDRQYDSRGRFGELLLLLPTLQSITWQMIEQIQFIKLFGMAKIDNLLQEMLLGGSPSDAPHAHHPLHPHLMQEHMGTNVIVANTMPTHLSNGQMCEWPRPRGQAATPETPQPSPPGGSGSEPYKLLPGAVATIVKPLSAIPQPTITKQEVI
Put plainly: protein-binding microarray. Particulars: COS-7 nuclear extract on double-stranded Agilent 4x180k PBM; binding buffer, salt, pH and temperature not given; high values mean tight binding; double strand, one strand shown; sequences stand for … in …GCCTAGGGAGATTAGAGTATCGGTCGA
On to AAAACAGAATGGTCTGTATTTCAGAGACTA, for which the binding signal (log2 normalized intensity) was -0.678.

As for TTACTGCAGAGAAGAAGCTTTGCCATTGTT, the binding signal (log2 normalized intensity) is -0.992.

For the sequence CTGACGCCATCTGGCGTCCCCCACCTGGAA, the binding signal (log2 normalized intensity) is 4.47.

As for GACCACCTGGTGGACCCAGCTGGTAAGTGC, the binding signal (log2 normalized intensity) worked out at 2.82.

As for ATTGGTTGCAGAAGGCAGCCAAACAGAGGC, the binding signal (log2 normalized intensity) was -1.23.

Turning to AGGATCTGTGTTATGCTTGCAGGTGTCAGG, the binding signal (log2 normalized intensity) stood at 1.71.

GAATTTGGACTTTGCACTAAAAGCCATGAG: the binding signal (log2 normalized intensity) stood at 6.28.

As to GACCTGGACTCCCAAGATGGATTGGGTCCA, the binding signal (log2 normalized intensity) was 2.73.

Take GGCCCTCAGCTGAGATAGCAGAGTCCAGTG: the binding signal (log2 normalized intensity) was determined as 2.94.

Consider GGAAGGCAGTAAGAGAGAAAGAAACAGGGG, for which the binding signal (log2 normalized intensity) is -1.28.

As to TCCAGGAGGTCGCTGGAAAGGCGGCAGGCT, the binding signal (log2 normalized intensity) was -1.35.

As to GGCTCCGATAAACCCAGGCAATGACTCCAA, the binding signal (log2 normalized intensity) is -1.08.

On to CTTGCCATTGGAGGTCACCCTGTGTCAGCG, for which the binding signal (log2 normalized intensity) was found to be 1.47.

Turning to TAGGAAGCAACAGACTGCTGTGTTACTAGA, the binding signal (log2 normalized intensity) is -1.26.

As to TGAATTGGTCATAATTCTCAAACTTTATGG, the binding signal (log2 normalized intensity) stood at 1.09.

As for TGGCATCCCTGTGGTATTTGCTCTGTCATC, the binding signal (log2 normalized intensity) came out at 1.39.

For TCCCTGCCAAAGGTCAGAGTTGAACCCTTG, the binding signal (log2 normalized intensity) was found to be 6.06.

For TGTGAGACCGGTTCCGCGGTCCGCAGCGCT, the binding signal (log2 normalized intensity) is -1.31.

As to CCTCCTGAGATAGGTATGATAACCCCCGTC, the binding signal (log2 normalized intensity) was 4.14.

Turning to CTGGTGTTTCCCTGTTTGCTTCTGCCCCCT, the binding signal (log2 normalized intensity) is 5.35.

As to GGGTCAACAGACAAATGAAAGAGCTCAAAT, the binding signal (log2 normalized intensity) is -1.12.

Consider CTGGTTACTAAACACTTACACCTGGGTGCT, for which the binding signal (log2 normalized intensity) was -1.11.

AGGCAGCCTCAGCCACACGCCCATCTCCAC: the binding signal (log2 normalized intensity) is -1.36.

As to TATCTTCCAGCCCTGTCTCTCAGGTGTAAC, the binding signal (log2 normalized intensity) came to 1.84.

In the case of TTTAAACATTCCCACCTAAGACATAAATAT, the binding signal (log2 normalized intensity) worked out at 1.87.

Consider TTGTCAGTGCCCTATACAGACCTTTGTATA, for which the binding signal (log2 normalized intensity) was determined as 3.82.

In the case of GAGGGGGCAGGACAGCAGGAGTGGGAGAAA, the binding signal (log2 normalized intensity) was -1.28.

For AGCAGTGTGGACTTTTTCCTGAGGGCAGGA, the binding signal (log2 normalized intensity) worked out at 1.56.

In the case of GAACTCTGACCTTTGCCCCCAGCCTCTCAC, the binding signal (log2 normalized intensity) worked out at 9.22.

As for GGTACTGGAAACTGGGCAAGGTCCATTACG, the binding signal (log2 normalized intensity) came out at 3.56.

Consider TGGGTTTCGGTGTCATCTAGACCTGGACTT, for which the binding signal (log2 normalized intensity) worked out at 3.34.

For CACGCCTCAAATGAGCTTTTGATGAGCCTA, the binding signal (log2 normalized intensity) was -1.4.

Turning to AGATTAGATTGCTCAGAGGCACAGTCTGCT, the binding signal (log2 normalized intensity) was -1.38.

As for GATCCTCACAGTGCCTCTGCAAGTTGGCCT, the binding signal (log2 normalized intensity) was 1.19.

Take CTGAGATTCAGAATAGTTAAGTAACGTGTC: the binding signal (log2 normalized intensity) stood at 0.789.

GACTCTGAGACCTGTGATGGTCACTATCTG: the binding signal (log2 normalized intensity) was 0.47.

On to CTTGCAGGTGTCAGGGGTCAATGTGCACAT, for which the binding signal (log2 normalized intensity) came out at 6.01.

TCATTTGGCTTCCGTGCCTGCATGGGCTGT: the binding signal (log2 normalized intensity) is -1.22.

In the case of AATGGGCAAAGGTCACAAGAGGTGCTGTGT, the binding signal (log2 normalized intensity) came out at 5.5.

For the sequence GGTCAGCTCATTCCCTAGGGCTCGGCATTC, the binding signal (log2 normalized intensity) is -1.31.

As to TTTCCCTCTGTGCCCGAGCTGTCTTATCTG, the binding signal (log2 normalized intensity) worked out at 0.988.

Turning to TTTAAAGAACTGGGCGAGCCCTCTGATCTG, the binding signal (log2 normalized intensity) was -1.37.

Consider TTGTATGTCCAAGGGTCACTCGACATTCAT, for which the binding signal (log2 normalized intensity) came out at 3.76.

For TAAGATTCTGGTCAAAGGTCAATGAAGCTC, the binding signal (log2 normalized intensity) came to 6.64.

On to AAATGTTATCATTACTTCTCAACTGATATG, for which the binding signal (log2 normalized intensity) stood at 1.29.

For the sequence GAAAGGAGACTAAAGGTCAAAACCACCTAT, the binding signal (log2 normalized intensity) worked out at 3.4.

For the sequence TGAGTGGGTTCACTTTGAGCAAGATAATGA, the binding signal (log2 normalized intensity) stood at 0.945.

In the case of CTGGGCCCCTCGGCCGCTCCCTCCCCTCCT, the binding signal (log2 normalized intensity) was found to be 5.19.

With TCCTGCCTTGGAGAAGTGAACTTTGCCCTC, the binding signal (log2 normalized intensity) was determined as 10.7.

For CCAGCAAACGTTCTTCTCTAACCCTCCTTT, the binding signal (log2 normalized intensity) was determined as 0.922.

On to GGATGTGGGACTTAATCCTTGTCTGTTTGG, for which the binding signal (log2 normalized intensity) came out at 1.49.

Turning to CTAAGAGCCTACTGAGAGGAAAGGGGTTAA, the binding signal (log2 normalized intensity) is -1.26.

As for GCTGATCACTTAAAATGAGACTTCCCAGCT, the binding signal (log2 normalized intensity) was -1.27.

As for ATGGCTAATCAGTATTGAGGCCGGAGGGCA, the binding signal (log2 normalized intensity) is 1.6.

With GGACGGGTAAGAGTCGTGGCCTTGCCATTG, the binding signal (log2 normalized intensity) is -0.856.

For CAGCCACAAAAACCAAAGGTCACTTCGCAT, the binding signal (log2 normalized intensity) amounted to 4.17.

On to GGACTATCCCCGTCCGCGGAAGCACACACG, for which the binding signal (log2 normalized intensity) worked out at 0.0414.

For TTCCCATTCATAAAATTACGCCACAGAGTT, the binding signal (log2 normalized intensity) is -1.29.

As for GTTGTTTTTAAAAGGCTGCCTTTCCCAGAT, the binding signal (log2 normalized intensity) was -0.901.

Turning to AAGGGCCCATGGGCTTCAGGGTAAATCCCG, the binding signal (log2 normalized intensity) is -0.903.

Turning to TGCAGGTAAAACTACATTTCCAAGACCTCT, the binding signal (log2 normalized intensity) is -1.35.

As for CAGCCACATTCCATGAGCTGGCCTCACTAA, the binding signal (log2 normalized intensity) is -1.5.

CTATGCCTTGAACTTTAAGGCACCTGCTCT: the binding signal (log2 normalized intensity) came out at 0.494.

Take GAGCTCGCGCCGGGCACTGATAACGCCCGC: the binding signal (log2 normalized intensity) was -1.35.

As to GCTCTCTGCTCTTACCTGCCAAATATTGGG, the binding signal (log2 normalized intensity) was -1.28.

In the case of CCATACCTCTTGCGTGTTATCTATGGAACA, the binding signal (log2 normalized intensity) amounted to 1.67.

As for GTGGTTTGCTACACTGCCAAAGTTCAACCA, the binding signal (log2 normalized intensity) is 3.07.

For GGGGTGGGAGTGCAGAGAGAGAGGGAGACA, the binding signal (log2 normalized intensity) was -1.31.

As to ATCTAACAAGAAGTCTGAAGGCAGGGCTTT, the binding signal (log2 normalized intensity) is -1.33.

Consider GTGATACCAGGGGTCATTTTATGGGAAAAC, for which the binding signal (log2 normalized intensity) is 2.43.

With CCCTCCGCAACCTTTACTCCTTGTGGTCAA, the binding signal (log2 normalized intensity) amounted to 3.06.

Regarding TCTGGGATGTTGGGAGGAGTGGACTTTGAT, the binding signal (log2 normalized intensity) was 6.84.
